This is an account of results in ChEMBL document CHEMBL4888484, “Replenishing the malaria drug discovery pipeline: Screening and hit evaluation of the MMV Hit Generation Library 1 (HGL1) against asexual blood stage Plasmodium falciparum ,using a nano luciferase reporter read-out” (2022).

The campaign covered roughly 150,000 compounds. About 540 (0.36%) showed an effect of 50% or more. The list shows a part of the results.

This test concerns Plasmodium falciparum. The experiment in a line: Primary screen in NF54 nanoGlo assay, in single point, at 2uM, 72h; a lower Z score goes with more inhibition. Format: functional, Erythrocyte. Conditions: timepoint 72 hour.
`CN(C)c1noc(-c2ccnn2C2CCCC2)n1`: the “% Inhibition” value was 7% and the Z score is on record as -0.92.

For the compound `CCOC(=O)C1CCN(c2cc3c(cc2NC(=O)NC2CCCC2)n(C)c(=O)n3C)CC1`, the “% Inhibition” value is on record as -2% and the Z score was found to be 0.41.

In the case of `C#CCN(C)C(=O)c1ccc(O)cc1C`, the “% Inhibition” value is reported as -5% and the Z score is given as 0.67.

Regarding `O=C(C[C@H]1CCC2(CCOCC2)CO1)Nc1cccnc1C1CC1`, the “% Inhibition” value is 5% and the Z score is on record as -0.7.

On to `CCOC(=O)c1c(C)[nH]c(CCC(=O)Nc2cc3c(cc2C(=O)OC)OCO3)c1C`, for which the “% Inhibition” value was -1% and the Z score was 0.16.

As for `CC(C)(C)OC(=O)NCC(NC(=O)C1CCS(=O)(=O)C1)C1CC1` (centres undefined), the “% Inhibition” value is given as -8% and the Z score was 1.03.

In the case of `COc1ccccc1CC(=O)Nc1cc(S(=O)(=O)N2CCOCC2)ccc1N1CCOCC1`, the “% Inhibition” value is given as -6% and the Z score was found to be 0.96.

With `COc1ccc(-c2ccno2)cc1S(=O)(=O)NCc1nc(C)cs1`, the “% Inhibition” value was 7% and the Z score is -0.93.

On to `CCc1nccn1CCC(=O)N(C)Cc1cccnc1`, for which the “% Inhibition” value is given as -1% and the Z score was found to be 0.1.

Turning to `CCC[C@H]1CN(c2nccc(N)n2)C[C@@H]1NS(C)(=O)=O`, the “% Inhibition” value was -9% and the Z score is 1.69.

Turning to `CCC(C)N(CC(=O)N(Cc1ccco1)CC1CCCO1)C(=O)C(C)C` (centres undefined), the “% Inhibition” value is -8% and the Z score worked out at 1.14.

For the compound `O=C1C[C@H](CNC(=O)N2CCC(CCc3ccc(F)cc3F)CC2)CN1`, the “% Inhibition” value was -6% and the Z score came to 1.19.

As for `Cc1nc(NC2C3CCOC3C2(C)C)nc(N(C)C)n1` (centres undefined), the “% Inhibition” value is reported as -17% and the Z score was 2.4.

In the case of `Cc1cc(C)c2sc(N3CCN(C(=O)NC4CCCC4)CC3)nc2c1`, the “% Inhibition” value was 16% and the Z score is listed as -1.87.

For the compound `CCc1ncsc1NC(=O)NCCc1ccc(O)cc1`, the “% Inhibition” value was -12% and the Z score amounted to 1.34.

For the compound `CCN(C(=O)[C@H]1[C@@H]2C[C@@H]3[C@H]1C(=O)O[C@@H]3C2)c1cccc(C)c1`, the “% Inhibition” value is on record as -15% and the Z score worked out at 2.08.

For `COc1ccc(C(=O)N2C[C@@H]3C[C@H](N(C)C)CN3C(=O)[C@@H]2C)c(C)c1`, the “% Inhibition” value is reported as -10% and the Z score was determined as 1.63.

With `O=C(NCCn1ccnc1)c1[nH]nc(C2CC2)c1Cl`, the “% Inhibition” value is -9% and the Z score came to 1.61.

With `Cc1nn(CCO)cc1CN1CC(N2CCOCC2)C1`, the “% Inhibition” value was -4% and the Z score was 0.85.

Turning to `Cc1nc(C(F)(F)F)c(CN(C)C[C@H]2CCOC2)s1`, the “% Inhibition” value is -8% and the Z score worked out at 1.25.

With `C[C@@H](Cn1cccn1)C(=O)NCCc1csc(N)n1`, the “% Inhibition” value is listed as -9% and the Z score came to 1.25.

With `Cc1c(F)cccc1C(=O)N(C)Cc1cc(C2CC2)on1`, the “% Inhibition” value is on record as 1% and the Z score is given as -0.14.

In the case of `O=C(CCc1nc2ccccc2c(=O)[nH]1)N1CCC1`, the “% Inhibition” value was -14% and the Z score was determined as 2.16.

In the case of `CC(=O)N[C@H](c1nc(-c2cc(C)c3[nH]cnc3c2)no1)C1CCCC1`, the “% Inhibition” value worked out at 1% and the Z score is on record as -0.16.

With `c1ccc(C(c2ccccc2)c2nc(-c3cccnn3)no2)cc1`, the “% Inhibition” value is reported as -18% and the Z score is given as 2.25.

For the compound `O=S(=O)(c1cc(F)cc(F)c1)N(CCCN1CCOCC1)[C@H]1CCCNC1`, the “% Inhibition” value is reported as -3% and the Z score came out at 0.33.

On to `Cc1c(NC(=O)N2CC[C@H](CN3CCCCC3)C2)cccc1N(C)C`, for which the “% Inhibition” value was -11% and the Z score is given as 0.98.

For the compound `C[C@H](Oc1ccc(F)cc1)C(=O)N1CCN2CCOc3cccc1c32`, the “% Inhibition” value is -8% and the Z score was 1.14.

For the compound `CCC1CCC(C)N1C(=O)C1OCCC1C` (centres undefined), the “% Inhibition” value is listed as -8% and the Z score amounted to 0.69.

With `CC(C)c1nc(CNc2cc([C@H]3C[C@H](N)C3)nc(C3CC3)n2)no1`, the “% Inhibition” value is 2% and the Z score is recorded as -0.35.

Regarding `O=C(c1cscn1)N(CC(F)(F)F)[C@H]1CCCOC1`, the “% Inhibition” value is given as 4% and the Z score is reported as -0.65.

In the case of `COc1cc2c(cc1CNc1nc(N)nc3c1CCNCC3)CCC2`, the “% Inhibition” value is reported as 28% and the Z score is reported as -3.73.

Consider `Cc1ncc(CN2CCOC[C@@H](C3CCC3)C2)cn1`, for which the “% Inhibition” value is 2% and the Z score is given as -0.25.

For `CC(=O)Nc1nc(C(=O)NCc2sccc2C)cs1`, the “% Inhibition” value is given as -7% and the Z score worked out at 1.

Turning to `Cc1nc2ccc(NC(=O)N3CCC(Cn4ccnc4C)CC3)cc2nc1C`, the “% Inhibition” value was determined as 5% and the Z score is -0.47.

With `Cc1ccn(CC(=O)NC2CCN(C3CCCCC3O)CC2)c(=O)c1` (centres undefined), the “% Inhibition” value amounted to 1% and the Z score is on record as -0.17.

As to `COCc1nc([C@@]2(C)CCCN(C(=O)CCc3ccc(OC)cc3)C2)no1`, the “% Inhibition” value is -1% and the Z score is given as 0.14.

Take `O=C1CC[C@]2(CNC(=O)c3ccc(F)cc3)CCC=C2N1`: the “% Inhibition” value is given as -14% and the Z score amounted to 1.96.

Consider `CC[C@H](O)Cn1ncnc1-c1cccc2c(C)c(C)[nH]c12`, for which the “% Inhibition” value is on record as -11% and the Z score was determined as 1.73.

For the compound `CC(C)c1ccc(OC[C@H]2CN(C(=O)c3ccccc3)CCO2)cc1`, the “% Inhibition” value is reported as -7% and the Z score is recorded as 0.99.

Turning to `COc1ccc(NC(=O)c2cc(S(=O)(=O)N3CCOCC3)ccc2Oc2ccccc2)cc1`, the “% Inhibition” value is listed as -5% and the Z score came to 0.84.

With `Cc1cnn(C2CN(C(=O)[C@@H]3CN(S(=O)(=O)c4ccccc4Cl)CCO3)C2)c1`, the “% Inhibition” value is given as -3% and the Z score turned out to be 0.35.
